Experimental data published in publication PMC4336329 (PLoS ONE, 2015).
About 2,200 (0.71%) of roughly 310,000 compounds showed an effect of 50% or more. The effect is printed as a negative number. Some of the results follow.

biological target: human ether-à-go-go-related gene (hERG) potassium channel (human, UniProt Q12809); assay: primary screen, population patch clamp on CHO cells stably expressing hERG
Sequence (Q12809 whole entry, looked up): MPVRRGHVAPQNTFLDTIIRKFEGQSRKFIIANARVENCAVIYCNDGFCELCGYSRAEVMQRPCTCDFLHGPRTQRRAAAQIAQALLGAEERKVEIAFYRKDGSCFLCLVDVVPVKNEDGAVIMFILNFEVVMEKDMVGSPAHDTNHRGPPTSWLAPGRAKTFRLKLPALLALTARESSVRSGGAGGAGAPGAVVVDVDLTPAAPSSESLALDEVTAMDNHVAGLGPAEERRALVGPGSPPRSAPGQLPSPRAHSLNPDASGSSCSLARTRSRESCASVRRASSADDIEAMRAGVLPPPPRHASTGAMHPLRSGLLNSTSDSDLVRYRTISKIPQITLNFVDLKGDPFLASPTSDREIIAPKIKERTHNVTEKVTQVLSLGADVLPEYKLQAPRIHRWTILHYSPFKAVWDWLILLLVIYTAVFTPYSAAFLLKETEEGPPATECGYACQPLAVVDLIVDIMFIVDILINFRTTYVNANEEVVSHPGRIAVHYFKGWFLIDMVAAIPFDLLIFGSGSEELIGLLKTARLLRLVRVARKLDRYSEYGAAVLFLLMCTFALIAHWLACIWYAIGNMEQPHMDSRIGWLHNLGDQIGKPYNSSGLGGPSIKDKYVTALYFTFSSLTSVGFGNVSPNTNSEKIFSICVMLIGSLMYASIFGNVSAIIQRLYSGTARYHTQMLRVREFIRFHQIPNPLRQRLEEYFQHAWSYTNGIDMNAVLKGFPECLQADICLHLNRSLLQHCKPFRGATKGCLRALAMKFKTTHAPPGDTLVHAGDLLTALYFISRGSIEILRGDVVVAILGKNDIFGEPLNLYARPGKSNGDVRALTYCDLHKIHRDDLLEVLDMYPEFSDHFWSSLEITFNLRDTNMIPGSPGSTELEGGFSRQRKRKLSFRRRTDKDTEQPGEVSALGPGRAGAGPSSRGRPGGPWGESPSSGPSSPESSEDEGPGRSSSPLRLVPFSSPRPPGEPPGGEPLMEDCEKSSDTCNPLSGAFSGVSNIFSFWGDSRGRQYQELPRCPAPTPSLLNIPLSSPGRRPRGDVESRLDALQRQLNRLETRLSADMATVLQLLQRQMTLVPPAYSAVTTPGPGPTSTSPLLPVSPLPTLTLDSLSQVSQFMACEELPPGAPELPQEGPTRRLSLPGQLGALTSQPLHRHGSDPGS

Row | Compound | hERG current change (%, negative = inhibition) at 1uM [%]
1 | Cc1[nH]nc(Nc2ccccc2)c1[N+](=O)[O-] | -3.5
2 | CNC(=O)c1c(C)noc1C | 12.7
3 | Cc1ccc(Cn2ncc3c(NN)ncnc32)cc1 | 14.2
4 | N#CCSc1nc(-c2ccccc2)nc2ccccc12 | 11.4
5 | COc1ccc(NC(=O)Nc2cccc(C)n2)cc1 | 11.2
6 | Cc1cc(C(=O)OCC(=O)NC2CCS(=O)(=O)C2)c(C)n1-c1ccccc1 (centres unmarked) | 14.3
7 | Cc1cc(C)c(NC(=O)CS(=O)CC(=O)NCCN2CCCCCC2)c(C)c1 (centres unmarked) | 13.4
8 | COc1cc(NC(=O)c2cccc(NC3=NC4CS(=O)(=O)CC4S3)c2)cc(OC)c1OC (centres unmarked) | 12.7
9 | CCCc1ccc(OCc2ccc(C(=O)N3CCCC3)o2)cc1 | 17.7
10 | COc1ccccc1NC(=O)O/N=C(\N)c1ccccc1 | 8.15
11 | CCN(CC)S(=O)(=O)c1ccc(S(=O)(=O)NCC2CCCO2)cc1 (centres unmarked) | 13.5
12 | COc1ccc(-c2nnc(SCC(=O)Nc3ccc(Cl)cc3)n2C)cc1 | 24.2
13 | CCCC(C(=O)N1CCOCC1)N1C(=O)C2C3C=CC(C3)C2C1=O (centres unmarked) | 12.5
14 | COc1ccccc1C(=O)Nc1ccc(OCC(=O)N2CCCCC2)cc1 | 5.76
15 | CCn1cc2nc(SCC(=O)Nc3ccc(OC)c(OC)c3)n(Cc3ccc(OC)cc3)c(=O)c2n1 | 8.17
16 | CCc1nc(SCC(=O)c2ccccc2)c2c(=O)n(C)c(=O)n(C)c2n1 | 4.97
17 | COc1ccc(OC)c(S(=O)(=O)NNC(=S)Nc2ccc3c(c2)OCO3)c1 | 1.35
18 | O=C(NCCCN1CCOCC1)Nc1ccc(Cc2ccc(NC(=O)NCCCN3CCOCC3)cc2)cc1 | 6.69
19 | CCOc1ccc(CCNC(=O)c2nnc(CS(=O)(=O)c3ccccc3)o2)cc1OCC | 8.59
20 | COc1cc(O)oc1C=Nc1ccc(C(F)(F)F)cc1 | 5.11
21 | C/C=C(\C)C(=O)N[C@@H](c1ccccc1)[C@@H](O)C(=O)O[C@H]1C[C@@]2(O)[C@@H](OC(=O)c3ccccc3)C3[C@](C)(C(=O)[C@H](O)C(=C1C)C2(C)C)[C@@H](O)C[C@H]1OC[C@@]31OC(C)=O (some centres unmarked) | 7.74
22 | CCOC(=O)COc1ccccc1/C=N/Nc1nnc2c3ccccc3n(C)c2n1 | 15.4

Row | Compound | hERG current change (%, negative = inhibition) at 1uM [%]
23 | CC(=O)Nc1ccc(S(=O)(=O)NNc2ccc([N+](=O)[O-])cc2)cc1 | 9.73
24 | Br.CC(=O)c1sc(Nc2ccc(C)cc2)nc1C | 11.6
25 | CC(C)C(=O)NC(Nc1ccc(S(N)(=O)=O)cc1)C(Cl)(Cl)Cl (centres unmarked) | 1.29
26 | CCNC(=S)N(Cc1cc2cc(C)ccc2[nH]c1=O)C1CCCC1 | 6.05
27 | CC(=O)NC(Cc1c[nH]c2ccccc12)C(=O)OCC(=O)Nc1cc(C)on1 (centres unmarked) | 9.67
28 | CC(=O)/C=C(/C)NC(Cc1c[nH]c2ccccc12)C(=O)O (centres unmarked) [3713680] | 10.1
29 | CNC(=O)C(=O)NCC1OCCN1S(=O)(=O)c1ccc([N+](=O)[O-])cc1 (centres unmarked) | 2.47
30 | COc1cccc(C2c3c(C)nn(-c4ccc([N+](=O)[O-])cc4)c3N=C3C(=O)Nc4ccccc4N32)c1 (centres unmarked) | 9.71
31 | Cc1ccccc1-c1cc(C(=O)Nc2sc(C)c(C)c2C(N)=O)c2ccccc2n1 | 14.3
32 | COc1ccc(OC)c(CNC(=O)CCc2nc(-c3cccs3)no2)c1 | 12.8
33 | CN(C)C1=NCCN1CCC1CCCC1 | 4.29
34 | Cc1cc(NC(=O)NC2CCCN2S(=O)(=O)c2ccc(Cl)cc2)no1 (centres unmarked) | -8.64
35 | C=CCn1c(Sc2nc(C)cs2)nc2c1c(=O)[nH]c(=O)n2C | 9.98
36 | O=C(Cn1nc(-c2ccccc2)ccc1=O)NCCCN1CCOCC1 | 3.63
37 | CCO[C@@H]1OC(C(=O)Nc2ccccc2)=C[C@H](c2ccccc2)[C@H]1CCCO | 11.5
38 | COc1ccc(C(=O)NC(=S)NC(C)c2ccccc2)cc1 (centres unmarked) | 13.7
39 | CCCCNCc1nc2ccccc2c(=O)[nH]1.Cl | 12.7
40 | CCN(CC)S(=O)(=O)c1ccc(N(C)Cc2ccc(C(F)(F)F)cc2)nc1 | 10.7
41 | CCOc1cc(C(=O)NC(C)CCc2ccccc2)cc(OCC)c1OCC (centres unmarked) | 6.56
42 | O=C(O)c1cc(N/N=C/c2ccncc2)ccc1Cl | 5.3
43 | Cc1ccc([N+](=O)[O-])cc1NC(=O)c1ccc(-c2ccccc2)cc1 | 8.42
44 | O=C(C1=C(O)C(=O)N(CCN2CCOCC2)C1c1ccc(F)cc1)c1cc2ccccc2o1 (centres unmarked) | 8.81
